Laboratory results as given in the supplement of paper PMC4967469.
pIC50: −log10 of the molar value. The IC50 comes from the fitted curve, where viability falls to half of the control; fits outside the tested doses are given as limits. The AUC spans the tested range (256-fold, ending at the top dose) of the same fit; the more sensitive the line, the further below 1. For part of these data: An inferred top dose comes from the curve model; the source does not state it. For part of these data: Where an entry number is given, a second screen of the drug exists; the two often differ.

Experiments:
Test in all cases: Viability of human cancer cell lines after 72 h of drug (GDSC screen)
[1] = compound: C=C1C(=O)O[C@H]2[C@H]1CC/C(C)=C/CC[C@@]1(C)O[C@@H]21 [Parthenolide]; settings: top dose 5 µM
Description: (§1)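 Human cancer cell lines in 384-well plates, medium with 10% serum, drug for 72 h over a 256-fold dose range (nine 2-fold or five 4-fold steps up to the top dose). Adherent lines were fixed and stained with the nucleic acid dye Syto60, suspension lines read with resazurin; signal relative to control wells, capped at 0 and 100%. One two-parameter sigmoid per drug and line, fitted in a mixed model over all curves with the slope shared within a line.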

[2] = compound: COc1cc2ncn(-c3cc(OCc4ccccc4S(C)(=O)=O)c(C#N)s3)c2cc1OC [KIN001-135]; settings: top dose 5 µM; top dose inferred
Description: as §1

[3] = compound: NC(=O)[C@@H](CCC(F)(F)F)N(Cc1ccc(-c2ncon2)cc1F)S(=O)(=O)c1ccc(Cl)cc1 [BMS-708163]; settings: top dose 5 µM; screen: GDSC drug entry 1072; top dose inferred
Description: as §1

[4] = compound: C=CCc1cccc(/C=N/NC(=O)CN2CCN(Cc3ccccc3)CC2)c1O [PAC-1]; settings: top dose 2.56 µM
Description: as §1

Cell Line	AUC [1]	pIC50 [1]	AUC [2]	pIC50 [2]	AUC [3]	pIC50 [3]	AUC [4]	pIC50 [4]
BB49-HNC (head and neck, adherent)	0.976	< 5.30	0.977	< 5.30	0.802	5.43		
BC-3 (B-cell lymphoma, suspension)	0.971	< 5.30	0.989	< 5.30			0.957	< 5.59
CAL-148 (breast, suspension)	0.989	< 5.30	0.986	< 5.30			0.959	< 5.59
CAS-1 (glioma, adherent)	0.934	< 5.30	0.943	< 5.30			0.899	< 5.59
CCRF-CEM (lymphoblastic leukaemia, suspension)			0.991	< 5.30	0.964	< 5.30	0.717	6.24
Calu-6 (lung adenocarcinoma, adherent)	0.901	< 5.30	0.984	< 5.30			0.98	< 5.59
D-247MG (glioma, adherent)	0.891	< 5.30	0.98	< 5.30	0.978	< 5.30		
D-336MG (glioma, adherent)	0.931	< 5.30	0.98	< 5.30	0.98	< 5.30		
DB (B-cell lymphoma, suspension)	0.983	< 5.30	0.983	< 5.30			0.958	< 5.59
DOHH-2 (B-cell lymphoma, suspension)	0.984	< 5.30	0.941	< 5.30			0.88	< 5.59
ECC12 (stomach, suspension)	0.973	< 5.30	0.98	< 5.30				
ES4 (Ewing sarcoma, adherent)	0.982	< 5.30	0.975	< 5.30			0.798	5.84
EW-12 (Ewing sarcoma, suspension)	0.932	< 5.30	0.975	< 5.30				
EW-22 (Ewing sarcoma, adherent)	0.984	< 5.30	0.975	< 5.30	0.988	< 5.30		
GA-10 (Burkitt lymphoma, suspension)	0.729	5.91	0.953	< 5.30	0.962	< 5.30		
GAK (melanoma, adherent)	0.952	< 5.30					0.984	< 5.59
HCC1599 (breast, suspension)	0.961	< 5.30	0.981	< 5.30			0.923	< 5.59
HCC-33 (small cell lung carcinoma, adherent)	0.978	< 5.30	0.986	< 5.30			0.878	< 5.59
HL-60 (acute myeloid leukaemia, suspension)			0.99	< 5.30	0.988	< 5.30	0.98	< 5.59
Hs-445 (Hodgkin lymphoma, suspension)	0.987	< 5.30	0.983	< 5.30			0.84	5.80

Cell Line	AUC [1]	pIC50 [1]	AUC [2]	pIC50 [2]	AUC [3]	pIC50 [3]	AUC [4]	pIC50 [4]
K-562 (chronic myeloid leukaemia, suspension)			0.983	< 5.30				
KASUMI-1 (acute myeloid leukaemia, suspension)	0.949	< 5.30	0.979	< 5.30	0.879	< 5.30		
KP-N-YN (neuroblastoma, adherent)	0.971	< 5.30	0.981	< 5.30			0.863	< 5.59
KP-N-YS (neuroblastoma, adherent)	0.972	< 5.30	0.982	< 5.30			0.891	< 5.59
LOXIMVI (melanoma, semi-adherent)			0.987	< 5.30	0.985	< 5.30	0.909	< 5.59
MHH-NB-11 (neuroblastoma, adherent)	0.965	< 5.30	0.979	< 5.30			0.972	< 5.59
MMAC-SF (melanoma, adherent)	0.952	< 5.30	0.984	< 5.30			0.96	< 5.59
MOLT-4 (lymphoblastic leukaemia, suspension)			0.992	< 5.30	0.991	< 5.30	0.856	5.83
NB7 (neuroblastoma, adherent)	0.867	5.31	0.986	< 5.30	0.938	< 5.30		
NB13 (neuroblastoma, adherent)	0.826	5.59	0.949	< 5.30			0.922	< 5.59
NB17 (neuroblastoma, adherent)	0.74		0.97	< 5.30	0.962	< 5.30		
NCI-H128 (small cell lung carcinoma, suspension)	0.875	< 5.30	0.98	< 5.30				
NCI-H226 (lung squamous cell carcinoma, adherent)	0.983	< 5.30	0.969	< 5.30	0.962	< 5.30		
NCI-H250 (small cell lung carcinoma, suspension)	0.971	< 5.30						
NCI-H378 (small cell lung carcinoma, suspension)	0.986	< 5.30	0.983	< 5.30				
NCI-H748 (small cell lung carcinoma, suspension)	0.895	< 5.30	0.946	< 5.30			0.926	< 5.59
NCI-H1838 (lung adenocarcinoma, adherent)	0.986	< 5.30	0.967	< 5.30			0.975	< 5.59
NCI-H2171 (small cell lung carcinoma, suspension)	0.948	< 5.30	0.988	< 5.30			0.992	< 5.59
NCI-H2196 (small cell lung carcinoma, adherent)	0.987	< 5.30	0.98	< 5.30			0.978	< 5.59
NK-92MI (lymphoid neoplasm, suspension)	0.832	5.54	0.987	< 5.30			0.855	5.74

Cell Line	AUC [1]	pIC50 [1]	AUC [2]	pIC50 [2]	AUC [3]	pIC50 [3]	AUC [4]	pIC50 [4]
NU-DUL-1 (B-cell lymphoma, suspension)	0.858	5.54	0.992	< 5.30			0.83	5.92
OVCAR-4 (ovary, adherent)			0.908	< 5.30	0.957	< 5.30	0.835	< 5.59
PL-21 (acute myeloid leukaemia, suspension)	0.946	< 5.30	0.977	< 5.30			0.872	< 5.59
RL95-2 (endometrium, adherent)	0.975	< 5.30	0.979	< 5.30				
RPMI-8226 (myeloma, suspension)			0.969	< 5.30	0.99	< 5.30	0.945	< 5.59
RXF393 (kidney, adherent)			0.978	< 5.30	0.895	< 5.30	0.931	< 5.59
SCC-15 (head and neck, adherent)			0.98	< 5.30	0.834	5.30	0.972	< 5.59
SF539 (glioma, adherent)			0.981	< 5.30	0.989	< 5.30	0.969	< 5.59
SKM-1 (haematopoietic neoplasm, suspension)	0.983	< 5.30	0.984	< 5.30	0.984	< 5.30		
SNB75 (glioma, adherent)			0.979	< 5.30	0.974	< 5.30	0.942	< 5.59
TC-YIK (cervix, suspension)	0.991	< 5.30	0.984	< 5.30	0.958	< 5.30		
THP-1 (acute myeloid leukaemia, suspension)			0.987	< 5.30	0.991	< 5.30	0.942	< 5.59
VA-ES-BJ (soft tissue, adherent)	0.889	< 5.30	0.984	< 5.30	0.975	< 5.30		
WM278 (melanoma, adherent)					0.965	< 5.30	0.924	< 5.59
WM793B (melanoma, adherent)					0.984	< 5.30	0.921	< 5.59
WM1552C (melanoma, adherent)					0.978	< 5.30	0.904	< 5.59
WM-115 (melanoma, adherent)					0.95	< 5.30	0.956	< 5.59
YAPC (pancreas, adherent)					0.961	< 5.30	0.981	< 5.59
huH-1 (liver, adherent)					0.966	< 5.30	0.972	< 5.59
